Test results as given in the supplement of paper PMC4967469.

Columns and labels:
Assay in all cases: Viability of human cancer cell lines after 72 h of drug (GDSC screen)
Dimethyloxalylglycine = compound: COC(=O)CNC(=O)C(=O)OC [Dimethyloxalylglycine]; conditions: top dose 4000 µM; top dose inferred
Method: (§1)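 Human cancer cell lines in 384-well plates, medium with 10% serum, drug for 72 h over a 256-fold dose range (nine 2-fold or five 4-fold steps up to the top dose). Adherent lines were fixed and stained with the nucleic acid dye Syto60, suspension lines read with resazurin; signal relative to control wells, capped at 0 and 100%. One two-parameter sigmoid per drug and line, fitted in a mixed model over all curves with the slope shared within a line.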

BIX02189 = compound: CN(C)Cc1cccc(N=C(c2ccccc2)c2c(O)[nH]c3cc(C(=O)N(C)C)ccc23)c1 [BIX02189]; conditions: top dose 20 µM; top dose inferred
Method: as §1

TG101348 = compound: Cc1cnc(Nc2ccc(OCCN3CCCC3)cc2)nc1Nc1cccc(S(=O)(=O)NC(C)(C)C)c1 [TG101348]; conditions: top dose 10.24 µM
Method: as §1

Doxorubicin = compound: COc1cccc2c1C(=O)c1c(O)c3c(c(O)c1C2=O)C[C@@](O)(C(=O)CO)C[C@@H]3O[C@H]1C[C@H](N)[C@H](O)[C@H](C)O1 [Doxorubicin]; conditions: top dose 1.024 µM
Method: as §1

OSI-027 = compound: COc1cccc2cc(-c3nc([C@H]4CC[C@H](C(=O)O)CC4)n4ncnc(N)c34)[nH]c12 [OSI-027]; conditions: top dose 20 µM
Method: as §1

VX-11e = compound: Cc1cnc(Nc2ccc(F)cc2Cl)nc1-c1c[nH]c(C(=O)N[C@H](CO)c2cccc(Cl)c2)c1 [VX-11e]; conditions: top dose 5.12 µM; top dose inferred
Method: as §1

UNC1215 = compound: O=C(c1ccc(C(=O)N2CCC(N3CCCC3)CC2)c(Nc2ccccc2)c1)N1CCC(N2CCCC2)CC1 [UNC1215]; conditions: top dose 1 µM; top dose inferred
Method: as §1

CCT018159 = compound: CCc1cc(-c2n[nH]c(C)c2-c2ccc3c(c2)OCCO3)c(O)cc1O [CCT018159]; conditions: top dose 10 µM; top dose inferred
Method: as §1

Cell Line	AUC (Dimethyloxalylglycine)	IC50 (Dimethyloxalylglycine)	AUC (BIX02189)	IC50 (BIX02189)	AUC (TG101348)	IC50 (TG101348)	AUC (Doxorubicin)	IC50 (Doxorubicin)	AUC (OSI-027)	IC50 (OSI-027)	AUC (VX-11e)	IC50 (VX-11e)	AUC (UNC1215)	IC50 (UNC1215)	AUC (CCT018159)	IC50 (CCT018159)
NCI-H748 (small cell lung carcinoma, suspension)	0.513	274 µM	0.905	> 20 µM	0.667	2.13 µM	0.669	0.216 µM	0.191	0.111 µM	0.948	> 5.12 µM				
A204 (rhabdomyosarcoma, adherent)	0.565		0.853	> 20 µM	0.804	6.99 µM	0.285	0.013 µM	0.435	0.79 µM	0.959	> 5.12 µM	0.974	> 1 µM	0.93	> 10 µM
HPAF-II (pancreas, adherent)	0.69	1010 µM	0.939	> 20 µM	0.897	> 10.2 µM	0.786	0.593 µM	0.37	0.488 µM	0.687	1.26 µM	0.978	> 1 µM	0.846	> 10 µM
COLO-792 (melanoma, adherent)	0.884	> 4000 µM	0.987	> 20 µM	0.828	6.15 µM	0.899	> 1.02 µM	0.312	0.376 µM	0.985	> 5.12 µM	0.987	> 1 µM	0.972	> 10 µM
HEL (acute myeloid leukaemia, semi-adherent)	0.482	226 µM	0.886	15.7 µM			0.673	0.177 µM	0.334	0.471 µM	0.958	> 5.12 µM	0.99	> 1 µM	0.919	> 10 µM
NCI-H2228 (lung adenocarcinoma, adherent)	0.313	56.9 µM	0.926	> 20 µM	0.887	> 10.2 µM	0.274	0.0103 µM	0.689	5.61 µM	0.961	> 5.12 µM				
COR-L105 (lung adenocarcinoma, adherent)	0.269	46.8 µM	0.771	9.42 µM	0.794	5.91 µM	0.621	0.149 µM	0.286	0.267 µM	0.805	3.29 µM	0.973	> 1 µM	0.919	> 10 µM
NCI-H1793 (lung adenocarcinoma, adherent)	0.701	1180 µM	0.97	> 20 µM	0.924	> 10.2 µM	0.824	0.978 µM	0.546	1.76 µM	0.982	> 5.12 µM	0.979	> 1 µM	0.912	> 10 µM
SW156 (kidney, adherent)	0.764	1610 µM	0.932	> 20 µM	0.871	> 10.2 µM	0.77	0.433 µM	0.772	8.6 µM	0.981	> 5.12 µM	0.975	> 1 µM	0.947	> 10 µM
Caov-3 (ovary, adherent)	0.675	719 µM	0.974	> 20 µM	0.903	> 10.2 µM	0.8	0.427 µM	0.67	3.47 µM	0.969	> 5.12 µM				
KP-4 (pancreas, adherent)	0.751	1270 µM	0.987	> 20 µM	0.988	> 10.2 µM	0.472	0.0539 µM	0.373	0.567 µM	0.988	> 5.12 µM	0.982	> 1 µM	0.901	> 10 µM
T-24 (bladder, adherent)	0.791	1710 µM	0.96	> 20 µM	0.905	> 10.2 µM	0.736	0.291 µM	0.775	7.54 µM	0.951	> 5.12 µM	0.987	> 1 µM	0.842	6.59 µM
SU-DHL-1 (anaplastic large cell lymphoma, suspension)	0.609	457 µM	0.997	> 20 µM	0.874	5.49 µM	0.566	0.0923 µM	0.161	0.183 µM	0.997	> 5.12 µM				
HCC-33 (small cell lung carcinoma, adherent)	0.536	314 µM	0.962	> 20 µM	0.695	2.27 µM	0.93	> 1.02 µM	0.682	4.06 µM	0.984	> 5.12 µM				
HPAC (pancreas, adherent)	0.416	134 µM	0.906	> 20 µM	0.849	> 10.2 µM	0.501	0.0644 µM	0.571	2.11 µM	0.587	0.612 µM			0.947	> 10 µM

IC50 is the fitted dose that halves viability relative to control wells, and lower means more sensitive; a limit (>, <) means that the fit lies beyond the doses tested. AUC sums up the same curve from the lowest dose to the 256-fold higher top dose; it is 1 without any effect and falls as sensitivity rises. For some assays here: Any top dose called inferred was derived from the fitted curves, not read from the paper.
